Reference: PMC7819943, “Rice protein-binding microarrays: a tool to detect cis-acting elements near promoter regions in rice”
The list shows a part of the results.

Target: T1, OsWOX13 (Oryza sativa, UniProt Q5QMM3 1-267)
T1 sequence: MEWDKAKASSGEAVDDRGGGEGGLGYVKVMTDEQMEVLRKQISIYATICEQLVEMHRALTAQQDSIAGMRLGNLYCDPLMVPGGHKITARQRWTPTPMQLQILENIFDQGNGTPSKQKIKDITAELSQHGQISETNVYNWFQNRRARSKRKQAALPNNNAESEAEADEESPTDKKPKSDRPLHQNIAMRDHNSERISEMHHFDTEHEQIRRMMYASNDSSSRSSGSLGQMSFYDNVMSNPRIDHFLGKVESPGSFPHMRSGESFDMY
Assay: protein-binding microarray (RPBM); PBS, 2% BSA, 51.3 ng/ul salmon testes DNA, 50 uM zinc acetate, 200 nM TF, 25 C, 1 h; high values mean tight binding
Conditions: protein: recombinant; tags: N-terminal polyhistidine and DsRed monomer fusion (pET32a); label: CyDye5-dUTP incorporated in the synthesized complementary strand; 3' TTTTT single-stranded linker to array surface; dsDNA, one strand shown
Outline: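 Transcription factors were made in E. coli BL21-CodonPlus as N-terminal fusions to a polyhistidine tag and DsRed, then purified on Ni–NTA. After primer extension with Cy5-dUTP and blocking with 2% BSA, a custom Agilent array was exposed for 1 h at 25 °C to 200 nM protein in PBS, 2% BSA, salmon testes DNA and 50 µM zinc acetate. Washed arrays were scanned on an Axon 4000B, and the binding signal is per-feature fluorescence intensity in arbitrary units.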

Row | Sequence | binding signal
1 | CCCTCAATTAATCGACCCTACGCACCGGAGATGGCTAGACCGGAGTCACCTAGTGCAG | 10300 fluorescence intensity (a.u.)
2 | TGGTCCAGAATGATTATATGTGTAATTTTACCGCAAACCTCGGAGTCACCTAGTGCAG | 5170 fluorescence intensity (a.u.)
3 | GTTGACAGTTTGACATGTGCTTGTAATTCTTTACCATTCTCGGAGTCACCTAGTGCAG | 12300 fluorescence intensity (a.u.)
4 | AAAACTAATTATACAGATTACATGTAAATTGCGAGACGAACGGAGTCACCTAGTGCAG | 18300 fluorescence intensity (a.u.)
5 | GCTTAATTAACAATCAACATAACTACTAACTAGTGTTGTTCGGAGTCACCTAGTGCAG | 57300 fluorescence intensity (a.u.)
6 | ACATTTATATTGATGATAAAATTTTATCTAGATTCTAAATCGGAGTCACCTAGTGCAG | 7600 fluorescence intensity (a.u.)
7 | AAAGTGACTGTAGATGATGTATTAATTTTGAAAGGTAGCACGGAGTCACCTAGTGCAG | 11700 fluorescence intensity (a.u.)
8 | TATGACTATCAATCTGTAAGAAGATGGACAACCCTCAATACGGAGTCACCTAGTGCAG | 12000 fluorescence intensity (a.u.)
9 | ATAACAAAATAAATTACAGATTTCGTCTGTAAACGAAACGCGGAGTCACCTAGTGCAG | 12700 fluorescence intensity (a.u.)
10 | AGTAATTGTCACCATACAAACACCCAGCACAACAATTTTACGGAGTCACCTAGTGCAG | 5040 fluorescence intensity (a.u.)
11 | CTTAAAATAATTTATCTTTGACCAAAGTCAAAACGTCTTACGGAGTCACCTAGTGCAG | 10600 fluorescence intensity (a.u.)
12 | AATAATTTTGCAAATAAATGATTAGATGATTCCCCACTTTCGGAGTCACCTAGTGCAG | 12800 fluorescence intensity (a.u.)
13 | CACACATTTGATATGATTTTGTAATGTCAATTCAAGATGACGGAGTCACCTAGTGCAG | 4920 fluorescence intensity (a.u.)
14 | AAACTATTCCTAATTAATAGATAACTTGCCATGCCGCATTCGGAGTCACCTAGTGCAG | 12800 fluorescence intensity (a.u.)
15 | GTAATACTAAATAATTAGTAATTGACTAGTTCCTGTCGGTCGGAGTCACCTAGTGCAG | 29700 fluorescence intensity (a.u.)
16 | TATAATTATATGTAGCTATGAAACTTTAGATGTATCGGGACGGAGTCACCTAGTGCAG | 20700 fluorescence intensity (a.u.)
17 | TGATGTGATTTAAATTTAATAGTATATAGAATGATTATTCCGGAGTCACCTAGTGCAG | 27100 fluorescence intensity (a.u.)
18 | TGCGAACTCGATTTCCAATCAAATGATCATCTGCCGCGGTCGGAGTCACCTAGTGCAG | 6020 fluorescence intensity (a.u.)
19 | TTTACCACTAACTACGCAATCAGTGCGGCCTGGCCCATCTCGGAGTCACCTAGTGCAG | 4440 fluorescence intensity (a.u.)
20 | CTCCATCATTCGATCTCAATCAAGCGATCGATCGTCCACACGGAGTCACCTAGTGCAG | 10100 fluorescence intensity (a.u.)
21 | TATAAACAACAGTAATTATAATTATATAATACTAATAGAGCGGAGTCACCTAGTGCAG | 17400 fluorescence intensity (a.u.)
22 | ATAATTAATTACCTCGCGAACTGACCGTCAGGGAGCGAGACGGAGTCACCTAGTGCAG | 20100 fluorescence intensity (a.u.)
23 | AAGAGGCCCATCATAATTGATAAAGTCATCAGTATATAGTCGGAGTCACCTAGTGCAG | 11300 fluorescence intensity (a.u.)
